The list shows a part of the results. At the low end of the ranking the order means little.

This experiment concerns T1, GST-NbGlk1(82-244).
T1 sequence: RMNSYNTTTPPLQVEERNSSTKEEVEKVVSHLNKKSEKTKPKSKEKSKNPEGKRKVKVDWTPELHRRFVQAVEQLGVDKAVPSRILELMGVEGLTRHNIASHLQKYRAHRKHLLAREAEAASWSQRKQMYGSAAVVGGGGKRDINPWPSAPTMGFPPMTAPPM
The experiment is described as follows: protein-binding microarray.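 Note: rank-based score ranging −0.5 to +0.5 with E above 0.45 taken as significant binding.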 The following applies: NbGlk1 is a Golden2-like transcription factor of Nicotiana benthamiana; high values mean tight binding; most listed sequences are background and not binding sites; double strand, one strand shown.
AGTTTTGA had a binding signal of 0.0845 E-score.
The result for AGTCACCA reads -0.186 E-score; that for AACCAACT, -0.058 E-score.
With AGACGTCC the figure was -0.227 E-score; with AGATATGG, 0.373 E-score.
With AAATTCCC the figure was 0.294 E-score.
With ATTCAGGC, the binding signal was -0.0809 E-score.
With ACTAATAA the figure was 0.0723 E-score; with ACGCACCA, -0.299 E-score; with ACGATAGG, -0.0796 E-score.
The result for ACGCTATG reads -0.0034 E-score; that for ATGGAACA, -0.0391 E-score; that for ATTCATTA, 0.0671 E-score.
The result for CAACATGC reads -0.0951 E-score; that for AAGATGCC, -0.106 E-score; that for AAAAGACC, -0.287 E-score.
For the sequence AGCGCGAT, the binding signal was 0.325 E-score.
With ACAAAGGG the figure was -0.0988 E-score; with ACACCGGA, 0.0311 E-score.
Take AGGTGATC: the binding signal stood at 0.102 E-score.
With ACCGACCT the figure was -0.263 E-score.
For ACTAAACT, the binding signal was -0.0324 E-score.
Take AAAATTCG: the binding signal turned out to be 0.282 E-score.
With CACCCTCG the figure was -0.072 E-score; with ACTTGCAT, 0.085 E-score.
With AGAGTGGG the figure was -0.296 E-score.
The result for AGTTCACC reads -0.198 E-score; that for AATGCCAC, -0.146 E-score.
For AGGTCCAA, the binding signal is -0.283 E-score.
AGACATAT showed a binding signal of 0.0634 E-score.
On to CAAATGAA, for which the binding signal worked out at 0.0959 E-score.
The result for AATCTAAG reads 0.402 E-score; that for AACTCAGT, -0.106 E-score; that for ACCTCTCG, -0.121 E-score.
The sequence ACGGTGTG showed a binding signal of -0.136 E-score.
In the case of AATAGGCT, the binding signal is -0.0752 E-score.
The result for ACGATTTG reads 0.264 E-score; that for ATAATTTC, 0.227 E-score.
The result for AAGTACTC reads -0.0934 E-score.
With CAATGAGC the figure was -0.259 E-score; with ATGCGAAT, 0.337 E-score; with ACATAGAG, -0.00584 E-score.
Consider AACTGGGA, for which the binding signal was -0.201 E-score.
With AGGCCCAA the figure was -0.368 E-score; with CAACGGTA, 0.0174 E-score.
The result for ACTTAATA reads 0.129 E-score; that for ATCACGTA, 0.257 E-score; that for ACACTATA, 0.085 E-score.
The result for ATCAGGTG reads 0.0759 E-score.
As for AGACTAGG, the binding signal is -0.128 E-score.
The result for AGCCTCCT reads -0.199 E-score.
With ACAGAACG the figure was -0.07 E-score; with CACCAATG, -0.194 E-score; with ACTCTGCG, 0.0535 E-score.
With ACCCGAGC the figure was -0.118 E-score; with ACACAGCG, -0.11 E-score.
With ATAGTTCC, the binding signal was -0.02 E-score.
The result for AGAGTGAC reads -0.128 E-score.
With AAAATGAC the figure was -0.0701 E-score; with ATGCAGTG, 0.0328 E-score.
With CACCGCGG the figure was -0.195 E-score.
The sequence CACCCAGG showed a binding signal of -0.273 E-score.
Take AAAAGCTC: the binding signal was -0.112 E-score.
With AAGGGGAC the figure was -0.252 E-score; with ACAGCAAG, -0.0307 E-score; with ATCTCTTA, 0.337 E-score.
In the case of AAGTCCTA, the binding signal was -0.141 E-score.
The result for AAAGTTGT reads -0.0761 E-score; that for CAAAGCAA, 0.0857 E-score; that for AAACAAGA, 0.0192 E-score.
The result for CAAGGGAG reads -0.194 E-score.
With AAACTTAA the figure was 0.0893 E-score.
As to AAGTCCCG, the binding signal is -0.16 E-score.
With ATCCAGCA the figure was 0.25 E-score; with AAGACCCA, -0.281 E-score; with AAACGCCC, -0.212 E-score.
The result for AAGAACGA reads -0.0638 E-score; that for AGTTCCAG, -0.0456 E-score; that for AAGGGGTG, -0.222 E-score.
The result for AAGATGTG reads -0.137 E-score.
Regarding AAAGATGA, the binding signal is -0.034 E-score.
The result for ACGGGAGA reads -0.0968 E-score.
The result for AATAAGCT reads 0.0279 E-score; that for AAGGCCTG, -0.313 E-score.
On to AATATGCG, for which the binding signal was determined as 0.172 E-score.
With AAATTCAT the figure was 0.0564 E-score.
In turn, CAAGGGGA showed a binding signal of 0.0351 E-score.
With ATTTGGTA the figure was 0.177 E-score; with ACTTGCGA, 0.162 E-score; with CAAGGAAA, 0.0213 E-score.
With AATGTTAC the figure was -0.024 E-score.
With ACGTCCTG the figure was -0.205 E-score; with CACTAAAA, 0.0918 E-score.
Consider AATGGTAT, for which the binding signal came to 0.0957 E-score.

For the origin of these results see paper PMC5836133.
